# Test results from publication PMC4336329 (PLoS ONE, 2015).
# About 2,200 (0.71%) of roughly 310,000 compounds showed an effect of 50% or more. Effects have a minus sign here. The list shows a part of the results.
# Biological target: human ether-à-go-go-related gene (hERG) potassium channel (human, UniProt Q12809)
# Experiment: primary screen, population patch clamp on CHO cells stably expressing hERG
# Sequence of human ether-à-go-go-related gene (hERG) potassium channel (Q12809 whole entry, looked up): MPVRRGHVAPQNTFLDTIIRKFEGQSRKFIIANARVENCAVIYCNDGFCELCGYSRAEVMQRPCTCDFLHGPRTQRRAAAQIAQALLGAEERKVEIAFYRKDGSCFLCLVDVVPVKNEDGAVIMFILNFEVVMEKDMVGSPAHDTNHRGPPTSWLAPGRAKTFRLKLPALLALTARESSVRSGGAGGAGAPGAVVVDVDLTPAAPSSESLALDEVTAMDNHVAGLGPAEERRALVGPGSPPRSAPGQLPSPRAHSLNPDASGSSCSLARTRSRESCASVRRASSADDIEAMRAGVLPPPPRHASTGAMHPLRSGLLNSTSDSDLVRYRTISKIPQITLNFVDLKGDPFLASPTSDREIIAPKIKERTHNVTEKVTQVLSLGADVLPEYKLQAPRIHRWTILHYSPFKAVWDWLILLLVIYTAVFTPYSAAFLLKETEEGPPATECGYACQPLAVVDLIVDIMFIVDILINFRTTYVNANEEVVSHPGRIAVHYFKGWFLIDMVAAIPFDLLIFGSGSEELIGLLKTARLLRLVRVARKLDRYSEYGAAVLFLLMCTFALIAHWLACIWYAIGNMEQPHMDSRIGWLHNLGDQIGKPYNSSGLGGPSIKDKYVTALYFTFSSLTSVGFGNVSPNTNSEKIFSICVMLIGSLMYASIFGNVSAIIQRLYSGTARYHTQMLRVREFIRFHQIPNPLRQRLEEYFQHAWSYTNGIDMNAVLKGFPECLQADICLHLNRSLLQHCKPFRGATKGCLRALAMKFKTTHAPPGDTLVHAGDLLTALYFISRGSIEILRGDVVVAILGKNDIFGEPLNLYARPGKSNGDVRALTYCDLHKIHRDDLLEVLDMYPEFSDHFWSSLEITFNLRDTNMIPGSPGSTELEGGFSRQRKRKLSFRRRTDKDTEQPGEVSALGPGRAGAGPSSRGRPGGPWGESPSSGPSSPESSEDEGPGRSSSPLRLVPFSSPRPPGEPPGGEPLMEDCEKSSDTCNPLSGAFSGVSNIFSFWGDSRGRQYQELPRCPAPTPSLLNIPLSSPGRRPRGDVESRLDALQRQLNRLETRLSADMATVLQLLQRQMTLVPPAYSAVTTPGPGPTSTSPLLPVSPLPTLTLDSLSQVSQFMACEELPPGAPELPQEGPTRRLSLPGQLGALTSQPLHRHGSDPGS
row,SMILES,"hERG current change (%, negative = inhibition) at 1uM [%]"
1,CCn1c(=S)sc2c(=O)n(CC(=O)Nc3ccc(OC)cc3)c(C)nc21,7.32
2,CNC(=O)CC1C(=O)N(C)C(=S)N1NC(=O)c1ccc(Cl)cc1 (stereo not drawn),-1.28
3,CCc1ccc2nc(N(CCCN(C)C)C(=O)c3ccc(S(=O)(=O)N4CCCC4)cc3)sc2c1.Cl,-25.3
4,CCCN(CCC)S(=O)(=O)c1ccc2c(c1)CCCN2C(C)=O,-11.3
5,NC(=O)COC(=O)c1sc2cc(F)ccc2c1Cl,7.49
6,COc1ccc(CC(=O)NCc2nnc(SCC(=O)Nc3ccc(OC)cc3)n2C)cc1,9.18
7,COc1ccc(-c2cc3c(=O)n(CC(=O)N4CCN(C)CC4)ncn3n2)cc1,-3.88
8,O=C(Nc1ccc(Br)cc1)C1CC=CCC1C(=O)OCC1CCCO1 (stereo not drawn),6.1
9,O=C(CCN1C(=O)CSc2ccccc21)Nc1ccc(C(F)(F)F)cc1,5.62
10,Cc1noc(NS(=O)(=O)c2ccc(NC(=O)c3nn(-c4ccccc4)ccc3=O)cc2)c1C,15.9
11,O=C(NC1CCCc2ccccc21)C(Cc1ccccc1)NS(=O)(=O)c1cccs1 (stereo not drawn),4.96
12,Cc1ccc(-n2nnc3c(=O)n(Cc4ccccn4)cnc32)cc1C,14.5
13,FC(F)(F)c1ccc(Sc2n[nH]c(C(F)(F)F)n2)nc1,9.59
14,CN1C(=O)C(C)(C)c2cc(S(=O)(=O)N3CCC(C(=O)NCc4ccc(F)cc4)CC3)ccc21,2.73
15,CC[N+]12CCC(CC1)C(=C(c1ccccc1)c1ccccc1)C2.[Br-],-8.25
16,Cc1ccc(S(=O)(=O)N(C)CCCC(=O)NC(C)(C)C)cc1,13.6
17,Cn1cc(C(=O)N/N=C/c2c(O)ccc3ccccc23)ccc1=O,12.4
18,O=C(O)c1ccc(N2CCc3ccccc32)c([N+](=O)[O-])c1,20.3
19,N#Cc1ccccc1S(=O)c1ccccc1C(=O)Nc1ccccc1 (stereo not drawn),9.25

row,SMILES,"hERG current change (%, negative = inhibition) at 1uM [%]"
1,CCOC(=O)c1ccc(Oc2c(C)oc3c(CN4CCN(C)CC4)c(O)ccc3c2=O)cc1,5.89
2,O=C(O)CSc1cc(C(=O)c2cc(F)ccc2O)cn2c(=O)c3c(-c4ccccc4)csc3nc12,1.97
3,Cc1ccc(CSCC(=O)N2CCN(c3ccc(F)cc3)CC2)cc1,-3.05
4,COc1ccc(NC(=O)CC2C(=O)N(c3ccc(Cl)cc3)C(=S)N2CCc2ccccn2)cc1 (stereo not drawn),0.654
5,Nc1nc(-c2ccco2)nn1S(=O)(=O)c1ccccc1,21.8
6,Cc1cccc(OCC(=O)N2CCN(Cc3cccnc3)CC2)c1.O=C(O)C(=O)O,4.47
7,CNCCCNC(=O)c1ccc(/C=N/O)nc1,15.1
8,CSc1ccc(S(=O)(=O)Nc2ccc(S(=O)(=O)Nc3ccc(C)cc3)cc2)cc1,1.01
9,O=C(CNc1n[nH]c(=O)[nH]c1=O)N/N=C/C=C/c1ccccc1,8.03
10,COc1ccc(C2C(C#N)=C(N)OC3=C2C(=O)CC(C)(C)C3)cc1Cn1nc(C)c([N+](=O)[O-])c1C (stereo not drawn),-13
11,CSCCC(NC(=O)COc1ccccc1)C(=O)N1CCN(c2ccccc2Cl)CC1 (stereo not drawn),-0.953
12,CCOC(=O)C1=C(C)NC(SC(C)=O)=NC1c1ccc(OC(C)=O)c(OC)c1 (stereo not drawn),2.83
13,CCCn1c(C)cc(C(=O)COC(=O)c2c(C)nn(-c3ccccc3)c2C)c1C,5.71
14,CCN(CC)CCN(C(=O)c1cc(Cl)sc1Cl)c1nc2cc3c(cc2s1)OCO3.Cl,0.653
15,Cn1ncc2c(N3CCOCC3)ncnc21,12.3
16,O=c1oc2ccccc2n1Cc1ccccc1,18
17,C=CCC(C)(NCc1ccccc1)c1ccc(C)cc1.Cl (stereo not drawn),11.7
18,CSc1ccc(NC(=O)NCCCN2CCC(Cc3ccccc3)CC2)cc1,-76
19,CCOC(=O)c1ccc(N2CN(C3CCCCC3)CNC2=S)cc1,18.6

row,SMILES,"hERG current change (%, negative = inhibition) at 1uM [%]"
1,Cc1cc(C(=O)CN2C(=O)C3CC=CCC3C2=O)c(C)n1-c1ccccc1 (stereo not drawn),-7.58
2,Nc1nonc1-c1noc(N2CCOCC2)n1,12.9
3,O=C(CNS(=O)(=O)c1ccc(Br)s1)N1CCC(N2CCCCC2)CC1,-5.7
4,CCn1c(Cc2ccccc2)nnc1SCC(=O)OC(C)C,-1.31
5,CCn1c(SCC(=O)NCCc2ccc(Cl)cc2)nnc1-c1cccs1,-36.6
6,Clc1ccc(Oc2ccccc2)c2ncccc12,9.87
7,COc1cc(C(=O)NNC(=O)c2cc(=O)[nH]c3ccccc23)cc(OC)c1OC,15.6
8,C=CCOc1c(CNn2cn[nH]c2=S)cccc1OC,10.8
9,O=C(CN(C(=O)CNC(=O)c1ccco1)c1ccc2c(c1)OCCO2)NC1CCCCC1,24.9
10,CC(C)C(=O)N/N=C/c1ccc(OCc2ccccc2)cc1,23
11,CCCNc1c(NC(C)=O)c(=O)oc2ccccc12,11.1
12,CS(=O)(=O)N1CCN(C(=O)NC2CCCCC2)CC1,13
13,COc1cc2ccccc2cc1C(=O)Nc1ccc(Cl)cn1,23.4
14,CNc1[nH]c(=O)[nH]c(=O)c1N=Nc1cc(Cl)ccc1Cl,13.9
15,COc1cnc(-c2ccccc2)[nH]c1=O,-3.03
16,COC(=O)Cn1cc(/C=C/[N+](=O)[O-])c2ccccc21,0.326
17,O=C(Nc1cccc(S(=O)(=O)N2CCOCC2)c1)C1CCN(S(=O)(=O)c2ccccc2)CC1,2.73
18,COc1cccc(CN2CCNCC2)c1.Cl,19.6
19,C#CCOCCOCCOCCNc1nc(N2CCN(C(=O)CCCCCCCCCCNC(=O)[C@@H](CCSC)n3cc(CCO)nn3)CC2)nc(N2CCN(C(=O)CCCCCCCCCCNC(=O)[C@H](CCSC)n3cc(CCO)nn3)CC2)n1,13.3
